Source: the RNAGym collection of RNA variant scans (doi:10.1101/gad.245936.114)
Variants at the background level are over-represented here.

B1: tRNA (parent)
chain: CUCUCGGUAGCCAAGUUGGUUUAAGGCGCAAGACUUUAAUUUAUCACUACGAAAUCUUGAGAUCGGGCGUUCGACUCGCCCCCGGGAGAUUUUUUCCUCGAGCAA

Variants of: B1
Experiment: nonsense suppression (GFP-seq) (ratio to wild type); higher = more function; SUP4oc tRNA, yeast GFP reporter sort-seq
In short: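 Sorted GFP/RFP bins of yeast were each Illumina-sequenced with a phred ≥30 cutoff; the cells held a genome-integrated ochre-suppressor tRNA variant from a library with ~3% random mutations, a galactose-driven GFP ochre reporter, and RFP. Culture was in raffinose/galactose medium containing 80 mg/L adenine. Nonsense suppression, termed GFPSEQ, is the median GFP/RFP of the bins weighted by each variant's estimated cell share per bin, relative to the unmutated parent tRNA, for variants reaching ≥100 reads and ≥30 cells.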

Nonsense suppression, ≤ 0.026:
C1A
C1A A9C A60U
C1A A9C C27G G69C
C1A A9C C64U C77U
C1A A9C U17A A24C U35G G67U G84A G86A G88A
C1A A9C U21G
C1A A9C U76A
C1A A9U A14U C34U
C1A A9U A30U U58C A60U C72A
C1A A9U C68G U76A C81A
C1A A9U U57C
C1A A13U
C1A A14C
C1A A14C G65C A74C
C1A A14G
C1A A14G G66U U76G
C1A A14U U17A
C1A A23C C29G
C1A A23U
C1A A23U U76C
C1A A24C
C1A A24C C82U A87U
C1A A24G C29G U70G
C1A A30C U35G
C1A A30G C75A
C1A A31U C80A
C1A A33G A54C
C1A A33U C64U U70C C77A
C1A A54G
C1A A54G U58C U71C
C1A A54G U76G
C1A A54U C83G
C1A A60C G88C
C1A A60G
C1A A62C
C1A A62C U76C
C1A A62U
C1A A89U
C1A C3A G28U
C1A C3U
C1A C3U C77G
C1A C3U U70G C77G
C1A C5G
C1A C5G A13G G18C A54U G65C
C1A C5G G61A
C1A C11A C75G C81A
C1A C11A G67C A74U
C1A C11A U63C C80A
C1A C11U
C1A C11U C12U A14U A62U
C1A C12G A13C U20C U21G A24G
C1A C12U A13U A14C G59A
C1A C27A A33G G66A C79U
C1A C27G A31C C34A G67C
C1A C27G A60G
C1A C27U U55G U57G G69A
C1A C29A C79G
C1A C34U
C1A C56A A62U
C1A C56A G73C
C1A C56U
C1A C56U U71G
C1A C64A
C1A C72A
C1A C75G
C1A C77G
C1A C77U
C1A C80G
C1A C83G
C1A C83U
C1A G6A U17C
C1A G6A U22C C34G A89G
C1A G6C C11U C68A
C1A G6C U8G
C1A G6C U16G C56U A74C
C1A G6C U20A
C1A G6U G7A A14G A62C G69U G85C
C1A G7A C11U A30G U35G A60U G69C
C1A G7C A23G A24G G25C C29G
C1A G7C A54C C80A
C1A G7C G66A
C1A G7U C80G G84A
C1A G7U U20A
